Assay results from PubChem BioAssay AID485344 (National Center for Advancing Translational Sciences (NCATS), 2010).
The whole screen tested about 340,000 compounds, of which about 6,900 (2%) were called active. Rule as the data show it: active = inhibition above about 30%; inactive = below that, where a call was filed. The list shows a part of the results, in another mix than the full data. Entries without a call were filed so in the source.
Also: 0% is about no effect.

These compounds were tested against D(2) dopamine receptor (Homo sapiens) (UniProt P14416) (assay: HTS Assay for Allosteric Antagonists of the Human D2 Dopamine Receptor: Primary Screen for Antagonists). Conditions: HEK293 TREx D2 cells, calcium flux, dopamine EC80; at 10 µM; stronger effect = higher value.
UniProt P14416, sequence (P14416 whole entry, looked up): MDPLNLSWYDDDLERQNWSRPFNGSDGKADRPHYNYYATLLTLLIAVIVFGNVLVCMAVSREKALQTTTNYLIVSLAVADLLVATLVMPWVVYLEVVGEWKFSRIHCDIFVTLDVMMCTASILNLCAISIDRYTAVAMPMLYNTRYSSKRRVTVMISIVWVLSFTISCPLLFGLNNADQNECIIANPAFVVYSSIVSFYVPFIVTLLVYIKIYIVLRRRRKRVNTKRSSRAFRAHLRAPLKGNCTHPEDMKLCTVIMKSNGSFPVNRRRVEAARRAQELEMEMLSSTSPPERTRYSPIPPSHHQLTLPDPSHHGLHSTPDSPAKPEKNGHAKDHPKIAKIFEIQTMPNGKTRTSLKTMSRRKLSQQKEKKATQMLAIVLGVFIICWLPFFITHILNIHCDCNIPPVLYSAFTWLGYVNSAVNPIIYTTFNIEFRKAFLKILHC
Procedure, shortened: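 Antagonism is scored as inhibition of an EC80 dopamine-evoked calcium signal in a force-coupled, tetracycline-inducible HEK293 T-REx D2 line, with compound present 180 s before agonist.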
With `COCCn1c(CNC(=O)c2ccccc2C)nc2cccnc21` the inhibition was 13.2%. `COc1cccc(-n2ccnc2SCC(=O)Nc2cccc3ccccc23)c1` showed an inhibition of 17.5%. In the case of `COc1ccc(-n2c(CC3C(=O)Nc4ccc(C)cc43)nc3ccccc3c2=O)cc1` (stereo not given), the inhibition is reported as -1.41%. `O=C(NCc1ccccc1Cl)c1ccc2c(c1)ncn2-c1cccc(F)c1` gave an inhibition of -2.74%. Compound `Cc1ccc(CNC(=O)C2CCCN(c3nc4ccccc4n4cccc34)C2)cc1` (stereo not given) has an inhibition of -17.6%. `COc1ccc(C(C)NC(=O)CN(c2cc(OC)ccc2OC)S(=O)(=O)c2ccccc2)cc1` (stereo not given) gave an inhibition of 6.45%. Work on `CC1CCN(CCCNC(=O)CN2C(=O)CSc3ccc(S(=O)(=O)N4CCCCC4)cc32)CC1` yielded an inhibition of 19.7%. For `O=S(=O)(Cc1ccccc1)N1CCC(N2CCN(c3ccccc3)CC2)CC1`, the inhibition was active: 88.6%. Compound `CCCSc1nc2sc3c(c2c(=O)n1-c1ccc(C)cc1)CCCC3` has an inhibition of -3.03%. `Cc1nc([N+](=O)[O-])c(Br)n1CC(=O)c1ccc(F)cc1` was tested, and the inhibition was active: 33.6%. For `CCOC(=O)c1c(S(=O)(=O)NCC(=O)Nc2cccc(SC)c2)c(C)n(C)c1C`, the inhibition was 12.5%. With `CN(C)c1ccc(/C=N/NC(=O)C(O)(c2ccccc2)c2ccccc2)o1` the inhibition was active: 32.6%. `COc1ccc(NC(=O)CCCS(=O)(=O)c2nc(-c3ccccc3OC)cc(C(F)(F)F)n2)c(OC)c1` gave an inhibition of -3.01%. `CC1=C(c2ccc(C(C)C)cc2)S(=O)(=O)NC1=NCc1ccc(OC(C)C)cc1` gave an inhibition of -15.2%. `CCc1ccc(NCc2cc3cc4c(cc3n(CC(=O)Nc3ccc(OC)cc3)c2=O)OCO4)cc1` gave an inhibition of -19%. Compound `CCc1ccc(C2c3c(-c4cc(C)ccc4O)n[nH]c3C(=O)N2CCO)cc1` (stereo not given) has an inhibition of 11.5%. For `Cc1ccccc1-c1noc(-c2cccnc2NCc2ccco2)n1`, the inhibition was 12.8%. `CCOC(=O)c1c(C)[nH]c(C)c1S(=O)(=O)N1CCC(C(=O)N2CCN(c3cccc(Cl)c3)CC2)CC1` was tested, and the inhibition was 19.6%. `O=C(NCc1ccccc1Cl)C1CCCN(S(=O)(=O)c2cccc3nsnc23)C1` (stereo not given) gave an inhibition of -2.94%. In the case of `CC(C)CCN1CCN(Cc2cccc3nonc23)CC1CCO` (stereo not given), the inhibition is reported as active: 54.2%. For `COc1ccc(C2=NS(=O)(=O)N(C)C(C(=O)N3CCC(C(N)=O)CC3)=C2)cc1`, the inhibition was active: 35.3%. `COc1ccc(OC)c(CNC(=O)c2c3c(nc4ccccc24)C(=O)N(C2CCCCC2)C3)c1` showed an inhibition of 9.13%. In the case of `CCC(=O)N1CCc2cc(Br)cc(S(=O)(=O)N3CCN(c4ccc(C)cc4)C(C)C3)c21` (stereo not given), the inhibition is reported as -12.7%. `C/C(=N\N=C1/SC(CC(=O)O)C(=O)N1c1ccccc1)c1ccc(C)cc1` (stereo not given) was tested, and the inhibition was active: 30.1%. `CCOC(=O)c1c(C)[nH]c(C)c1S(=O)(=O)N1CCC(C(=O)N2CCN(c3ccccc3)CC2)CC1` showed an inhibition of 9.75%.
